The campaign covered roughly 310,000 compounds. About 14,000 (4.5%) showed an effect of 50% or more. The effect is printed as a negative number. Some of the results follow.
The molecules below were run against human ether-à-go-go-related gene (hERG) potassium channel (human, UniProt Q12809) (assay: primary screen, population patch clamp on CHO cells stably expressing hERG).
Chain of human ether-à-go-go-related gene (hERG) potassium channel (Q12809 whole entry, looked up): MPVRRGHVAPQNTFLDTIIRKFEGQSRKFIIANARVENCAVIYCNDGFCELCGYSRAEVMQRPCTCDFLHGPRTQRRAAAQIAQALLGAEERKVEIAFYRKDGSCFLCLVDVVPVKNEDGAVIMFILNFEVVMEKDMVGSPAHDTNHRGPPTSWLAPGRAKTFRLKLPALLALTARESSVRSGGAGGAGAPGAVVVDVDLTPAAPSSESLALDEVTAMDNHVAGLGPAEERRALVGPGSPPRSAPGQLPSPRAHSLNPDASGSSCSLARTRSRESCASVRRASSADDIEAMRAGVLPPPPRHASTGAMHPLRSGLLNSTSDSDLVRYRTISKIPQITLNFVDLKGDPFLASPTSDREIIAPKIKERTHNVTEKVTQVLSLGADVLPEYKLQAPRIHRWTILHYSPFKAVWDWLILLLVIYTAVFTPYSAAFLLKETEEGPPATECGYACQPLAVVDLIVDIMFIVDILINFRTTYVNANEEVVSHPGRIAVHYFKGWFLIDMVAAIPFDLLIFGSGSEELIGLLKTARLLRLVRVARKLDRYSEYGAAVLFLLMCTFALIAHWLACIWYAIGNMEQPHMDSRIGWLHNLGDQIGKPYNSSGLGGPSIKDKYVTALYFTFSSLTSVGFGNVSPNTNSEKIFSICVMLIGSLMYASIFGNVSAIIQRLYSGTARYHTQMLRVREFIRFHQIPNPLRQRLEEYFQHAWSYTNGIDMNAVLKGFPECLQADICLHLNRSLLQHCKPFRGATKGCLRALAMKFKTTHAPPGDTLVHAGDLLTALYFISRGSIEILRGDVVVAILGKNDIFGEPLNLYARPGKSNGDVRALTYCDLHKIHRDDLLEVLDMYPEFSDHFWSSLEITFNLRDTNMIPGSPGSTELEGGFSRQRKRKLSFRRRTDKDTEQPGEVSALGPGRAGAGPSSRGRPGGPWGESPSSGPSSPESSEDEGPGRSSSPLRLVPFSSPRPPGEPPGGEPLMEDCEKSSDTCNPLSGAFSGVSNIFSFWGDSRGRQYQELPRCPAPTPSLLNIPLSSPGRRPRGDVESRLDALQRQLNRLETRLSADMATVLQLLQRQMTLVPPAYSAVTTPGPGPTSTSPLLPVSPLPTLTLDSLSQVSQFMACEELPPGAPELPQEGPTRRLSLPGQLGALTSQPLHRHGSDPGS
In the case of `O=C(Cn1nc(-c2ccccc2)ccc1=O)NCC1COCCO1` (centres unmarked), the “hERG current change (%, negative = inhibition) at 10uM” value is reported as -1.47%.
In the case of `NC(=O)C1(N2CCCCC2)CCN(S(=O)(=O)c2cc(Cl)ccc2Cl)CC1`, the “hERG current change (%, negative = inhibition) at 10uM” value is reported as -32.2%.
For `COc1cccc(N2CCN(CC(=O)Nc3ccc(S(=O)(=O)N4CCCCCC4)cc3)CC2)c1`, the “hERG current change (%, negative = inhibition) at 10uM” value was -21.9%.
`O=C(c1ccc(Cl)cc1)N1CCN(C(=O)C2CCCCC2)CC1` was tested, and the “hERG current change (%, negative = inhibition) at 10uM” value was -2.89%.
`COc1ccc(NC(=O)Cn2c(=O)oc3cc(Cl)ccc32)c(OC)c1` was tested, and the “hERG current change (%, negative = inhibition) at 10uM” value was 14.7%.
With `CC1=C(C(=O)OCc2ccc3c(c2)OCO3)C(c2ccc(F)cc2)NC(=O)N1` (centres unmarked) the “hERG current change (%, negative = inhibition) at 10uM” value was -24.9%.
`C=CCSc1nc2ccccc2c2nc(-c3ccccc3)nn12` was tested, and the “hERG current change (%, negative = inhibition) at 10uM” value was 9.06%.
For `O=C(/C=C/c1ccc(Br)o1)NC(c1ccccc1)c1ccccc1`, the “hERG current change (%, negative = inhibition) at 10uM” value was -10.1%.
`COC(=O)c1sc(NC(=O)c2cc(C)on2)nc1C` was tested, and the “hERG current change (%, negative = inhibition) at 10uM” value was 0.597%.
For `COc1cc(C)ccc1OCC(=O)Nc1ccccc1N1CCOCC1`, the “hERG current change (%, negative = inhibition) at 10uM” value was -21.5%.
For `CCC(Oc1ccc(C)cc1)C(=O)Nc1ccccc1C(=O)N1CCOCC1` (centres unmarked), the “hERG current change (%, negative = inhibition) at 10uM” value was 13.7%.
For `COc1ccc(N2CCN(c3oc(-c4ccccc4OC)nc3C#N)CC2)cc1`, the “hERG current change (%, negative = inhibition) at 10uM” value was -17.6%.
`Cc1cccc(NC(=O)c2nc[nH]c2C(=O)N(C)Cc2ccccc2)c1` was tested, and the “hERG current change (%, negative = inhibition) at 10uM” value was 8.87%.
For `O=C(/C=C/c1ccccc1)NCCOc1ccccc1`, the “hERG current change (%, negative = inhibition) at 10uM” value was -13.5%.
In the case of `CC(OC(=O)Cc1cccc(C(F)(F)F)c1)C(=O)Nc1ccc(Cl)cn1` (centres unmarked), the “hERG current change (%, negative = inhibition) at 10uM” value is reported as -24.9%.
In the case of `CCO[C@H]1OC(C(=O)N2CCN(Cc3ccc4c(c3)OCO4)CC2)=C[C@@H](C)[C@@H]1CCCO`, the “hERG current change (%, negative = inhibition) at 10uM” value is reported as 0.739%.
With `CCN(CC)CCNC(=O)CS(=O)Cc1nc(-c2ccc(C)cc2)oc1C` (centres unmarked) the “hERG current change (%, negative = inhibition) at 10uM” value was -11.8%.
With `CCSc1sccc1C1C(C#N)=C(N)N(c2cccnc2)C2=C1C(=O)CC(C)(C)C2` (centres unmarked) the “hERG current change (%, negative = inhibition) at 10uM” value was -50.4%.
`O=S(=O)(NCCCCCNS(=O)(=O)c1c(F)cccc1F)c1ccc2c(c1)OCCO2` was tested, and the “hERG current change (%, negative = inhibition) at 10uM” value was -18.7%.
For `Cc1noc(C)c1CSc1nnc(-c2c[nH]c3ccccc23)n1-c1ccc(Cl)cc1`, the “hERG current change (%, negative = inhibition) at 10uM” value was 2.32%.
`C=CCn1c(C)cc(C(=O)COc2ccc(C)nc2[N+](=O)[O-])c1C` was tested, and the “hERG current change (%, negative = inhibition) at 10uM” value was -19.3%.
`COc1ccc(C(=O)NC(=S)Nc2ccc3oc(=O)ccc3c2)cc1` was tested, and the “hERG current change (%, negative = inhibition) at 10uM” value was 11.5%.
For `COc1ccc(O)c(/C=N/c2sc(C)c(C)c2C#N)c1`, the “hERG current change (%, negative = inhibition) at 10uM” value was -19.6%.

Reference: paper PMC4336329 (PLoS ONE, 2015)
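Also: peak tail current of the secondary pulse compared with the same well before compound.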
